Data as given in a collection of fitness landscapes (doi:10.1016/j.celrep.2020.107928).
In all, about 81,000 sequences were measured (“one-hybrid fitness for binding NBS DNA”: median about -0.1, highest 2% from about 0.36 on). The list shows a part of the results.

B1: Caulobacter ParB omega fusion; a variant is named by its letters at X, in order, B8GW30 (parent)
chain: MESVVVGEPGMSEGRRGLGRGLSALLGEVDAAPAQAPGEQLGGSREAPIEILQRNPDQPRRTFREEDLEDLSNSIREKGVLQPILVRPSPDTAGEYQIVAGERAWRAAQRAGLKTVPIMVRELDDLAVLEIGIIENVQRADLNVLEEALSYKVLMEKFERTQENIAQTIGKSXSHVANXMRLLXLPDEVQSYLVSGELTAXHARAIAAAADPVALAKQIIEGGLSVRETEALARKAPNLSAGKSKGGRPPRVKDTDTQALESDLSSVLGLDVSIDHRGSTGTLTITYATLEQLDDLCNRLTRGI

Variants of: B1
Assay: one-hybrid fitness for binding NBS DNA (the Noc-binding site; scaled: cognate 1, non-cognate 0); higher = stronger binding
Settings: with NBS DNA site
Procedure, shortened: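 Selection: bacterial one-hybrid in E. coli USO, HIS3 reporter with the site 19 bp from the promoter, 48 hours at 37°C on M9-minus-histidine plus 0.1 mM IPTG and 5 mM 3-AT. Libraries were Caulobacter ParB with four randomised specificity codons, sequenced on Illumina before and after selection. Fitness is the rescaled log change in variant-to-wild-type read ratio, anchored to the cognate and non-cognate sites.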

Variant	one-hybrid fitness for binding NBS DNA
SVRF	≤ 0.2
QRQF	0.323
FMLL	≤ 0.2
LGLA	≤ 0.2
QQKV	0.533
AILN	≤ 0.2
TTSE	≤ 0.2
KQDV	≤ 0.2
VHAS	≤ 0.2
SFGI	≤ 0.2
IHAG	≤ 0.2
RPCC	≤ 0.2
SMMS	≤ 0.2
MNVA	≤ 0.2
AVSF	≤ 0.2
VLGC	≤ 0.2
PMWS	≤ 0.2
IAPS	≤ 0.2
FPAG	≤ 0.2
SCKN	≤ 0.2
HKPC	≤ 0.2
ANSK	≤ 0.2
GCAC	≤ 0.2
TAIH	≤ 0.2
RIQP	≤ 0.2

Variant	one-hybrid fitness for binding NBS DNA
CNQL	≤ 0.2
GKLT	≤ 0.2
ACQA	≤ 0.2
QIAC	≤ 0.2
PARY	≤ 0.2
VQLK	≤ 0.2
STEG	≤ 0.2
FGHT	≤ 0.2
WCVN	≤ 0.2
ASYD	≤ 0.2
CTIC	≤ 0.2
MTKG	≤ 0.2
YLLF	≤ 0.2
QSHF	≤ 0.2
MVTT	≤ 0.2
DVMF	≤ 0.2
PHGL	≤ 0.2
YKDM	≤ 0.2
FSNF	≤ 0.2
YTGT	≤ 0.2
SAQM	≤ 0.2
GSYH	≤ 0.2
HPLE	≤ 0.2
QSIT	0.353
HSHT	≤ 0.2
